# Assay results taken from the supplement of paper PMC10369915.
# Some of the results follow. Rule as the data show it: active = 3.2 or more and inactive = the rest. Only a few entries rise above the background.
# Target: SHP2 C-SH2 domain E139D
# Assay: enrichment score (SH2-bound / input frequency) (ratio); bacterial display of known human phosphotyrosine sites (pTyr-Var adds point mutants) read by sequencing; higher = stronger binding; tyrosines were phosphorylated by kinases first
# Settings: peptide library: pTyr-Var
# 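Also: displayed peptides selected on beads carrying the immobilized SH2 domain, with library peptides lacking any tyrosine serving as negative controls.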
row,Binder,enrichment score
1,SRGRQYQELPR [KCNH2_Y1009],inactive: 0.48
2,DMDATYRPMFS [JUP_Y701_YF],inactive: 0.841
3,RRNEEYCLLAS [ITK_Y198_D202A],inactive: 0.147
4,LSVEIHDRREY [ITGB7_Y753_Y753H],inactive: 1.39
5,ASTHVYQIMNH [ITK_Y588],inactive: 1.05
6,QQTFTYDSGIH [JUP_Y22_YF],inactive: 0.72
7,MEKEKYVSYIS [JMJD1C_Y596],inactive: 0.793
8,PINEPYGDDLD [JUP_Y693_M697L],inactive: 0.736
9,LIDGFYRLTAD [JAK2_Y373_YF],inactive: 0.831
10,DLDATYRPMYS [JUP_Y701_M697L],inactive: 0.564
11,ENKGVYVLMSG [IVD_Y277],inactive: 1.15
12,EWQQTYTFDSG [JUP_Y20_YF],inactive: 0.979
13,ASNFNYFYHRE [KCNA1_Y413_V408A],inactive: 0.83
14,PLAVPYLDKPP [JMJD7_Y31],inactive: 1.12
15,LSVEIYDRREF [ITGB7_Y753_YF],inactive: 0.777
16,HLVLNYGVCFC [JAK2_Y613_V617F],inactive: 1.27
17,SLIDGYYRLTE [JAK2_Y372_A377E],inactive: 0.997
18,HSVLNYGVCVC [JAK2_Y613_L609S],inactive: 0.8

# Target: SHP2 C-SH2 domain wild-type
# Assay: as above
# Settings: peptide library: pTyr-Var
row,Binder,enrichment score
1,SRGRQYQELPR [KCNH2_Y1009],inactive: 0.459
2,DMDATYRPMFS [JUP_Y701_YF],inactive: 0.701
3,RRNEEYCLLAS [ITK_Y198_D202A],inactive: 0.143
4,LSVEIHDRREY [ITGB7_Y753_Y753H],inactive: 1.07
5,ASTHVYQIMNH [ITK_Y588],inactive: 0.978
6,QQTFTYDSGIH [JUP_Y22_YF],inactive: 0.759
7,MEKEKYVSYIS [JMJD1C_Y596],inactive: 0.906
8,PINEPYGDDLD [JUP_Y693_M697L],inactive: 0.521
9,LIDGFYRLTAD [JAK2_Y373_YF],inactive: 0.837
10,DLDATYRPMYS [JUP_Y701_M697L],inactive: 0.493
11,ENKGVYVLMSG [IVD_Y277],inactive: 0.855
12,EWQQTYTFDSG [JUP_Y20_YF],inactive: 0.757
13,ASNFNYFYHRE [KCNA1_Y413_V408A],inactive: 0.789
14,PLAVPYLDKPP [JMJD7_Y31],inactive: 0.837
15,LSVEIYDRREF [ITGB7_Y753_YF],inactive: 0.826
16,HLVLNYGVCFC [JAK2_Y613_V617F],inactive: 2.06
17,SLIDGYYRLTE [JAK2_Y372_A377E],inactive: 0.789
18,HSVLNYGVCVC [JAK2_Y613_L609S],inactive: 0.912

# Target: SHP2 N-SH2 domain L43F
# Assay: as above
# Settings: peptide library: pTyr-Var
row,Binder,enrichment score
1,SRGRQYQELPR [KCNH2_Y1009],inactive: 0.475
2,DMDATYRPMFS [JUP_Y701_YF],inactive: 0.668
3,RRNEEYCLLAS [ITK_Y198_D202A],inactive: 0.217
4,LSVEIHDRREY [ITGB7_Y753_Y753H],inactive: 0.97
5,ASTHVYQIMNH [ITK_Y588],inactive: 0.928
6,QQTFTYDSGIH [JUP_Y22_YF],inactive: 0.68
7,MEKEKYVSYIS [JMJD1C_Y596],inactive: 0.7
8,PINEPYGDDLD [JUP_Y693_M697L],inactive: 0.549
9,LIDGFYRLTAD [JAK2_Y373_YF],inactive: 1.31
10,DLDATYRPMYS [JUP_Y701_M697L],inactive: 0.567
11,ENKGVYVLMSG [IVD_Y277],inactive: 1.04
12,EWQQTYTFDSG [JUP_Y20_YF],inactive: 0.876
13,ASNFNYFYHRE [KCNA1_Y413_V408A],inactive: 0.581
14,PLAVPYLDKPP [JMJD7_Y31],inactive: 0.98
15,LSVEIYDRREF [ITGB7_Y753_YF],inactive: 0.643
16,HLVLNYGVCFC [JAK2_Y613_V617F],inactive: 1.62
17,SLIDGYYRLTE [JAK2_Y372_A377E],inactive: 0.793
18,HSVLNYGVCVC [JAK2_Y613_L609S],inactive: 0.639

# Target: SHP2 N-SH2 domain T42A
# Assay: as above
# Settings: peptide library: pTyr-Var
row,Binder,enrichment score
1,SRGRQYQELPR [KCNH2_Y1009],inactive: 0.445
2,DMDATYRPMFS [JUP_Y701_YF],inactive: 1.89
3,RRNEEYCLLAS [ITK_Y198_D202A],inactive: 0.16
4,LSVEIHDRREY [ITGB7_Y753_Y753H],inactive: 1.02
5,ASTHVYQIMNH [ITK_Y588],inactive: 2.47
6,QQTFTYDSGIH [JUP_Y22_YF],inactive: 0.68
7,MEKEKYVSYIS [JMJD1C_Y596],inactive: 0.782
8,PINEPYGDDLD [JUP_Y693_M697L],inactive: 0.551
9,LIDGFYRLTAD [JAK2_Y373_YF],inactive: 1.04
10,DLDATYRPMYS [JUP_Y701_M697L],inactive: 0.525
11,ENKGVYVLMSG [IVD_Y277],inactive: 1.05
12,EWQQTYTFDSG [JUP_Y20_YF],inactive: 1.05
13,ASNFNYFYHRE [KCNA1_Y413_V408A],inactive: 0.817
14,PLAVPYLDKPP [JMJD7_Y31],inactive: 0.882
15,LSVEIYDRREF [ITGB7_Y753_YF],inactive: 0.775
16,HLVLNYGVCFC [JAK2_Y613_V617F],inactive: 1.54
17,SLIDGYYRLTE [JAK2_Y372_A377E],inactive: 0.706
18,HSVLNYGVCVC [JAK2_Y613_L609S],inactive: 0.667

# Target: SHP2 N-SH2 domain T52S
# Assay: as above
# Settings: peptide library: pTyr-Var
row,Binder,enrichment score
1,SRGRQYQELPR [KCNH2_Y1009],inactive: 0.431
2,DMDATYRPMFS [JUP_Y701_YF],inactive: 0.762
3,RRNEEYCLLAS [ITK_Y198_D202A],inactive: 0.287
4,LSVEIHDRREY [ITGB7_Y753_Y753H],inactive: 1.01
5,ASTHVYQIMNH [ITK_Y588],inactive: 1.09
6,QQTFTYDSGIH [JUP_Y22_YF],inactive: 0.755
7,MEKEKYVSYIS [JMJD1C_Y596],inactive: 0.773
8,PINEPYGDDLD [JUP_Y693_M697L],inactive: 0.495
9,LIDGFYRLTAD [JAK2_Y373_YF],inactive: 1.57
10,DLDATYRPMYS [JUP_Y701_M697L],inactive: 0.581
11,ENKGVYVLMSG [IVD_Y277],inactive: 1.11
12,EWQQTYTFDSG [JUP_Y20_YF],inactive: 0.944
13,ASNFNYFYHRE [KCNA1_Y413_V408A],inactive: 1.28
14,PLAVPYLDKPP [JMJD7_Y31],inactive: 0.987
15,LSVEIYDRREF [ITGB7_Y753_YF],inactive: 0.698
16,HLVLNYGVCFC [JAK2_Y613_V617F],inactive: 1.76
17,SLIDGYYRLTE [JAK2_Y372_A377E],inactive: 0.786
18,HSVLNYGVCVC [JAK2_Y613_L609S],inactive: 0.784

# Target: SHP2 N-SH2 domain wild-type
# Assay: as above
# Settings: peptide library: pTyr-Var
row,Binder,enrichment score
1,SRGRQYQELPR [KCNH2_Y1009],inactive: 0.489
2,DMDATYRPMFS [JUP_Y701_YF],inactive: 0.768
3,RRNEEYCLLAS [ITK_Y198_D202A],inactive: 0.312
4,LSVEIHDRREY [ITGB7_Y753_Y753H],inactive: 1.14
5,ASTHVYQIMNH [ITK_Y588],inactive: 1.28
6,QQTFTYDSGIH [JUP_Y22_YF],inactive: 1.22
7,MEKEKYVSYIS [JMJD1C_Y596],inactive: 0.707
8,PINEPYGDDLD [JUP_Y693_M697L],inactive: 0.422
9,LIDGFYRLTAD [JAK2_Y373_YF],inactive: 0.841
10,DLDATYRPMYS [JUP_Y701_M697L],inactive: 0.621
11,ENKGVYVLMSG [IVD_Y277],inactive: 1.01
12,EWQQTYTFDSG [JUP_Y20_YF],inactive: 1.02
13,ASNFNYFYHRE [KCNA1_Y413_V408A],inactive: 0.842
14,PLAVPYLDKPP [JMJD7_Y31],inactive: 1.05
15,LSVEIYDRREF [ITGB7_Y753_YF],inactive: 1.01
16,HLVLNYGVCFC [JAK2_Y613_V617F],inactive: 1.94
17,SLIDGYYRLTE [JAK2_Y372_A377E],inactive: 0.76
18,HSVLNYGVCVC [JAK2_Y613_L609S],inactive: 0.894
